Activity data for three compounds are collected here from ChEMBL document CHEMBL1137992, “Long hydrocarbon chain keto diols and diacids that favorably alter lipid disorders in vivo” (J Med Chem, 2004).

What all share (format): functional
Assay [1] deals with Rattus norvegicus. Kind of assay: Amount of glucose in obese Zucker rats at pre-treatment at a dose of 30 mg/kg/day. In a few lines: (§1)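 Female Zucker fatty rats [Crl:(Zuc)-faBR], 10–12 weeks old (400–500 g), gavaged daily with vehicle (20% EtOH/80% PEG-200, 0.25% of body weight) or compound. After a 6-h fast, blood glucose was read by glucometer from tail-prick blood of unanesthetized rats before dosing and after 1 and 2 weeks. Values are mean ± SEM.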

In assay [2] the test system is Rattus norvegicus. Kind of assay: Amount of non-HDL-cholesterol in obese Zucker rats at pre-treatment at a dose of 100 mg/kg/day.
In assay [3] the test system is Rattus norvegicus. Description: Amount of triglycerides in obese Zucker rats after 2 weeks of treatment at a dose of 0 mg/kg/day. The method, boiled down: (§2)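 Female Zucker fatty rats [Crl:(Zuc)-faBR], 10–12 weeks old (400–500 g), dosed once daily by oral gavage in 20% EtOH/80% PEG-200 for up to 14 days. After a 6-h fast, serum was taken pre-dose, at day 7 (orbital venous plexus, O2/CO2 anaesthesia) and at day 14 (cardiac puncture), stored at −80 °C, and assayed on a Hitachi 912 automatic analyzer. Mean ± SEM.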

Assay [4] concerns Rattus norvegicus. Kind of assay: Amount of HDL-cholesterol in obese Zucker rats after 1 week of treatment at a dose of 30 mg/kg/day.
Assay [5] relates to Rattus norvegicus. Kind of assay: Amount of HDL-cholesterol in obese Zucker rats after 2 weeks of treatment at a dose of 0 mg/kg/day.
The test system of assay [6] is Rattus norvegicus. Description: Amount of nonesterified fatty acids in obese Zucker rats after 2 weeks of treatment at a dose of 100 mg/kg/day. The method, boiled down:
as §2

In assay [7] the test system is Rattus norvegicus. Kind of assay: Percent increase in HDL-cholesterol in obese Zucker rats after 2 weeks of treatment at a dose of 100 mg/kg/day. The method, boiled down: (§3)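 Female Zucker fatty rats [Crl:(Zuc)-faBR], 10–12 weeks, 400–500 g, acclimated 7 days on chow. Compound or vehicle (20% EtOH/80% PEG-200) given by daily oral gavage for 2 weeks, 0–100 mg/kg/day. After a 6 h fast, blood was taken before dosing, at 1 wk and at 2 wk. Serum lipids, NEFA and insulin (ELISA) were measured; glucose by glucometer. HDL/non-HDL-C came from Superose 6 gel-filtration profiles. Values are % change from pretreatment, mean ± SEM.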

Assay [8] concerns Rattus norvegicus. Kind of assay: Amount of nonesterified fatty acids in obese Zucker rats after 1 week of treatment at a dose of 3 mg/kg/day.
Assay [9] deals with Rattus norvegicus. Kind of assay: Percent decrease in HDL-cholesterol in obese Zucker rats after 1 week of treatment at a dose of 0 mg/kg/day. On the set-up: scale not given: the % may be the effect or the level left.
The test system of assay [10] is Rattus norvegicus. Description: Amount of nonesterified fatty acids in obese Zucker rats after 1 week of treatment at a dose of 10 mg/kg/day. In a few lines:
as §2

Assay [11] relates to Rattus norvegicus. Description: Amount of nonesterified fatty acids in obese Zucker rats after 2 weeks of treatment at a dose of 30 mg/kg/day. The method, boiled down:
as §2

For assay [12], the system named is Rattus norvegicus. Kind of assay: Amount of HDL-cholesterol in obese Zucker rats at pre-treatment at a dose of 0 mg/kg/day. In a few lines: (§4)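 Female Zucker fatty rats [Crl:(Zuc)-faBR], 10–12 weeks old (400–500 g), dosed once daily by oral gavage in 20% EtOH/80% PEG-200 (dose volume 0.25% of body weight). Rats were fasted 6 h and bled before dosing and at day 7 (orbital plexus), and at day 14 (cardiac puncture). Serum cholesterol fractions came from Superose 6 gel-filtration lipoprotein profiles (% peak area × serum total cholesterol). Values are mean ± SEM.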

Assay [13] deals with Rattus norvegicus. Kind of assay: Amount of HDL-cholesterol in obese Zucker rats at pre-treatment at a dose of 3 mg/kg/day.
For assay [14], the system named is Rattus norvegicus. Kind of assay: Amount of triglycerides in obese Zucker rats at pre-treatment at a dose of 100 mg/kg/day. In a few lines: as §2
The subject of assay [15] is Rattus norvegicus. Kind of assay: Percent decrease in non-HDL-cholesterol in obese Zucker rats after 1 week of treatment at a dose of 10 mg/kg/day. On the set-up: scale not given: the % may be the effect or the level left.
The test system of assay [16] is Rattus norvegicus. Description: Amount of non-HDL-cholesterol in obese Zucker rats at pre-treatment at a dose of 10 mg/kg/day. The method, boiled down: (§5)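 Female obese Zucker fatty rats [Crl:(Zuc)-faBR], 10–12 weeks old (400–500 g), on chow. Compound in 20% EtOH/80% PEG-200 (v/v) given by daily oral gavage. After a 6-h fast, serum was taken before dosing and at 7 days (orbital plexus), and at 14 days (cardiac puncture). Lipoprotein cholesterol came from Superose 6HR gel-filtration profiles × serum total cholesterol. Mean ± SEM.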

Assay [17] concerns Rattus norvegicus. Description: Percent increase in insulin in obese Zucker rats after 1 week of treatment at a dose of 30 mg/kg/day.
Assay [18] deals with Rattus norvegicus. Description: Amount of non-HDL-cholesterol in obese Zucker rats after 2 weeks of treatment at a dose of 3 mg/kg/day. In a few lines:
as §5

Assay [19] relates to Rattus norvegicus. Description: Percent decrease in glucose in obese Zucker rats after 2 weeks of treatment at a dose of 100 mg/kg/day. On the set-up: scale not given: the % may be the effect or the level left.
Assay [20] relates to Rattus norvegicus. Kind of assay: Percent decrease in insulin in obese Zucker rats after 2 weeks of treatment at a dose of 100 mg/kg/day. Further details: scale not given: the % may be the effect or the level left.
Assay [21] deals with Rattus norvegicus. Description: Amount of non-HDL-cholesterol in obese Zucker rats after 1 week of treatment at a dose of 100 mg/kg/day. The method, boiled down: as §4
Assay [22] deals with Rattus norvegicus. Description: Amount of non-HDL-cholesterol in obese Zucker rats after 2 weeks of treatment at a dose of 10 mg/kg/day. The method, boiled down:
as §4

For assay [23], the system named is Rattus norvegicus. Description: Amount of glucose in obese Zucker rats after 1 week of treatment at a dose of 30 mg/kg/day. The method, boiled down:
as §1

The test system of assay [24] is Rattus norvegicus. Kind of assay: Percent decrease in nonesterified fatty acids in obese Zucker rats after 1 week of treatment at a dose of 30 mg/kg/day. Further details: scale not given: the % may be the effect or the level left. In a few lines:
as §3

For assay [25], the system named is Rattus norvegicus. Description: Percent decrease in non-HDL-cholesterol in obese Zucker rats after 1 week of treatment at a dose of 100 mg/kg/day. Further details: scale not given: the % may be the effect or the level left. The method, boiled down: as §3
Assay [26] concerns Rattus norvegicus. Kind of assay: Amount of glucose in obese Zucker rats after 2 weeks of treatment at a dose of 10 mg/kg/day. The method, boiled down: as §1

Further values from the same series stand in other lists.

Consider `CC(C)(CO)CCCCC(=O)CCCCC(C)(C)CO`, for which the Activity with Rattus norvegicus [1] worked out at 111 mg/dL; with Rattus norvegicus [2], 31 mg/dL; in the assay on Rattus norvegicus [3] it was 1099 mg/dL; in the assay with Rattus norvegicus [4] it was 60 mg/dL; with Rattus norvegicus [5], 41 mg/dL; in the assay on Rattus norvegicus [6], 0.94 mg/dL. Moreover, the Activity in the assay on Rattus norvegicus [7] was 76%; with Rattus norvegicus [8], 1.2 mg/dL; in the assay on Rattus norvegicus [9], -19%; in the assay with Rattus norvegicus [10] it was 0.98 mg/dL; in the assay on Rattus norvegicus [11], 1.2 mg/dL; with Rattus norvegicus [12], 48 mg/dL. Moreover, the Activity in the assay on Rattus norvegicus [13] amounted to 48 mg/dL; with Rattus norvegicus [14], 1051 mg/dL.

In the case of `CC(C)(CCCCC(=O)CCCCC(C)(C)C(=O)O)C(=O)O`, the Activity in the assay on Rattus norvegicus [2] was 31 mg/dL; in the assay with Rattus norvegicus [4] it was 53 mg/dL; in the assay with Rattus norvegicus [5], 38 mg/dL; with Rattus norvegicus [8], 1.2 mg/dL; in the assay on Rattus norvegicus [15], -35%; in the assay on Rattus norvegicus [13], 31 mg/dL.

On to `CC(C)(CCCCCC(=O)CCCCCC(C)(C)C(=O)O)C(=O)O`, for which the Activity came to 22 mg/dL in the assay on Rattus norvegicus [16]; 119 mg/dL with Rattus norvegicus [1]; 26 mg/dL with Rattus norvegicus [2]; 1189 mg/dL in the assay with Rattus norvegicus [3]; 159 mg/dL in the assay on Rattus norvegicus [4]; 69 mg/dL with Rattus norvegicus [5]. For the same compound, the Activity is -35% in the assay on Rattus norvegicus [17]; 25 mg/dL in the assay with Rattus norvegicus [18]; -10% with Rattus norvegicus [19]; -50% in the assay on Rattus norvegicus [20]; 2 mg/dL with Rattus norvegicus [21]; 34 mg/dL in the assay on Rattus norvegicus [22]. In addition, the Activity is 0.66 mg/dL in the assay with Rattus norvegicus [6]; 113% in the assay with Rattus norvegicus [7]; 1.1 mg/dL in the assay with Rattus norvegicus [8]; -13% in the assay with Rattus norvegicus [9]; 1 mg/dL in the assay with Rattus norvegicus [10]; 0.66 mg/dL with Rattus norvegicus [11]. Moreover, the Activity in the assay with Rattus norvegicus [23] was 108 mg/dL; in the assay with Rattus norvegicus [24], -32%; with Rattus norvegicus [25] it was -92%; in the assay with Rattus norvegicus [12] it was 76 mg/dL; in the assay with Rattus norvegicus [13] it was 77 mg/dL; in the assay on Rattus norvegicus [14] it was 937 mg/dL. Further, the Activity in the assay on Rattus norvegicus [26] is 125 mg/dL.
